In publication PMC10668032 one finds binding signal data, which are given here for 172 sequences.

The list shows a part of the results. At the low end of the ranking, values are background and their order means little.

For this test, the target named is SIX1 homeodomain (reference allele) (UniProt Q15475). Briefly: universal protein binding microarray. The conditions noted are these: Universal all-10-mer PBM (8x60K, AMADID 030236), 300 nM GST-tagged protein, Alexa Fluor 488 anti-GST; buffer, salt, pH and temperature not stated; high values mean tight binding; most listed sequences are background and not binding sites; double strand, one strand shown.
On to TATTTACA, for which the binding signal is 0.176 E-score.
The same measure for AACATCTG: -0.206 E-score.
Then AAAATGAG, with 0.0679 E-score; and AAAGCTAT, with 0.00446 E-score.
The same measure for CCATTGCA: -0.119 E-score.
With GAGATTGA, the binding signal was -0.0193 E-score.
Then ACGGGCGC, with -0.216 E-score; and AAAACATA, with -0.0275 E-score; and ACCACAGA, with 0.0991 E-score.
As to CATCCTCC, the binding signal is 0.153 E-score.
On to GCGCCAGA, for which the binding signal is -0.13 E-score.
In the case of AGGAATCG, the binding signal was -0.13 E-score.
Then GATGAGCC, with 0.249 E-score.
The same measure for TCACGAGA: 0.00962 E-score.
As for ACCGCATA, the binding signal worked out at 0.202 E-score.
Regarding CCATGAGA, the binding signal worked out at 0.242 E-score.
The same measure for GAAAGGAA: -0.345 E-score; for GCGAAACC: 0.00927 E-score; for ATTTGACC: -0.0951 E-score.
The same measure for CCCTATAA: 0.0541 E-score; for ACGGTGAC: -0.106 E-score; for CCGTATCG: 0.457 E-score.
The same measure for ATCGAGGA: 0.199 E-score; for CGCCAAAG: -0.305 E-score.
In the case of ACGCCGGA, the binding signal came to 0.119 E-score.
For the sequence ATAGCTTA, the binding signal was 0.214 E-score.
Regarding ACCGGCAC, the binding signal turned out to be 0.0657 E-score.
The same measure for AACGTATT: 0.104 E-score; for GCACCCGC: 0.0943 E-score; for CCACATGG: -0.0309 E-score.
Then CGTTTCAG, with -0.153 E-score.
For the sequence AAAGCTTA, the binding signal was -0.101 E-score.
Turning to AAAAGTTA, the binding signal was -0.18 E-score.
Then ATACTTAA, with 0.19 E-score; and ATCCGAGG, with 0.326 E-score.
Regarding GGCAACAC, the binding signal turned out to be 0.0683 E-score.
Regarding AAATTTAC, the binding signal is -0.0872 E-score.
The same measure for TAGTAAAA: 0.00847 E-score; for AGGATCTA: 0.174 E-score.
The same measure for ATGGACCG: -0.238 E-score; for GTTACACA: -0.154 E-score.
Regarding AAACCGGT, the binding signal was 0.0421 E-score.
Then ATACAGTG, with 0.19 E-score; and GTATAGGA, with 0.0623 E-score; and AAATTCCG, with -0.0667 E-score.
The same measure for ATCGAGCC: 0.0621 E-score; for ACTGGATG: -0.0141 E-score.
ATGGCAGA: the binding signal is 0.139 E-score.
Then GGACCTAA, with 0.0132 E-score.
GATAAATA: the binding signal turned out to be 0.138 E-score.
Turning to GCCTAACC, the binding signal is -0.15 E-score.
Then GGCATTGA, with -0.16 E-score; and CTTCACGA, with -0.114 E-score; and CCGGAGCA, with -0.0627 E-score.
The same measure for ACGAATAC: 0.0962 E-score.
Then AAGGCAGC, with -0.219 E-score; and CGACTTAG, with -0.15 E-score.
TGTACACA: the binding signal is -0.0577 E-score.
Regarding GCAATGAC, the binding signal is -0.0743 E-score.
As to CATCCATC, the binding signal worked out at 0.0812 E-score.
The same measure for ATCTTTGC: 0.0855 E-score; for AGGAATAC: 0.211 E-score; for CCACTACC: -0.0909 E-score.
The same measure for ATGATGCC: 0.157 E-score; for AGCCACAT: -0.0809 E-score.
Then TCTAATAA, with 0.0732 E-score; and AAAGAACC, with -0.156 E-score.
Turning to GACGGCGA, the binding signal was -0.172 E-score.
Take CCCGTTTA: the binding signal came to 0.0838 E-score.
Consider GCGACCAC, for which the binding signal was -0.0536 E-score.
Then AGGCGGTC, with -0.123 E-score.
The same measure for ACTTTGGG: -0.0954 E-score; for GGGAAGGA: 0.103 E-score; for ATGAGCCC: 0.117 E-score.
With GGGCCCAC, the binding signal is -0.35 E-score.
The same measure for TAGTAGAA: 0.043 E-score.
Take ACATCCTG: the binding signal turned out to be 0.0768 E-score.
Then AGCAGTGG, with -0.181 E-score.
The same measure for TATTGACA: 0.166 E-score; for ACTCCCCG: 0.0209 E-score; for ACTTATCG: 0.053 E-score.
On to CTACAAAG, for which the binding signal is -0.0453 E-score.
Then AAGGTCAA, with -0.311 E-score; and ATTGTAGG, with 0.0541 E-score.
As for AGCCGCTG, the binding signal is -0.12 E-score.
On to CATCGGGA, for which the binding signal turned out to be 0.164 E-score.
For the sequence ATGCGGGG, the binding signal was -0.0579 E-score.
Take CAACTACC: the binding signal is -0.0871 E-score.
On to CCGCTTAG, for which the binding signal is -0.206 E-score.
For TCATCCGA, the binding signal was 0.255 E-score.
The same measure for ACCCAAAT: -0.154 E-score; for CTCAGTCC: -0.0046 E-score; for CCGCCAAC: 0.0571 E-score.
The same measure for AGATGAAA: 0.0685 E-score; for TATTATGA: 0.207 E-score.
The same measure for CGTAAGGA: 0.0418 E-score; for ATCTCGAA: 0.0229 E-score.
Take CAAGCTCA: the binding signal is -0.145 E-score.
The same measure for CATAGTGG: -0.0644 E-score; for CGTTTAAG: -0.0763 E-score.
As for TATCCGGA, the binding signal amounted to 0.391 E-score.
Take CTACCAAA: the binding signal was -0.141 E-score.
In the case of CACGGTAA, the binding signal was -0.0875 E-score.
GCGTACCA: the binding signal was -0.0841 E-score.
As for CGGGCGTC, the binding signal is -0.141 E-score.
On to CATTGGCA, for which the binding signal was -0.0649 E-score.
The same measure for GATGAAGA: -0.0878 E-score; for ATAATTGC: -0.089 E-score.
With CTGGATTA, the binding signal came out at 0.177 E-score.
AGCGCTAG: the binding signal is -0.133 E-score.
Then GCCCCTAC, with 0.102 E-score; and CTCTTCCA, with -0.117 E-score; and ATGTCGTC, with -0.119 E-score.
Then GATATGGA, with 0.423 E-score; and ACACACGC, with -0.109 E-score; and TCCGTAAA, with 0.0655 E-score.
Regarding CTCGGATA, the binding signal was found to be 0.375 E-score.
For ACCATTGA, the binding signal is -0.0201 E-score.
Then AGGGAAAT, with -0.173 E-score.
For CTTCCTGC, the binding signal is -0.239 E-score.
Turning to GACAAGCA, the binding signal was -0.191 E-score.
Consider CTATGTGC, for which the binding signal is -0.11 E-score.
The same measure for ATATTAAG: 0.215 E-score; for AAATCAAT: -0.13 E-score.
Then CAACGACA, with -0.0482 E-score.
Turning to CACTCAAA, the binding signal is -0.246 E-score.
Consider ACGTTACA, for which the binding signal is -0.221 E-score.
In the case of CTATCTCA, the binding signal is 0.256 E-score.
The same measure for CTTTATTA: 0.035 E-score; for CTTACTTA: -0.12 E-score; for TGCGATAA: 0.117 E-score.
Then AACATGCA, with -0.0116 E-score; and CGTGAGGC, with -0.278 E-score; and ACGCACAA, with -0.294 E-score.
CGAGCATA: the binding signal was 0.036 E-score.
The same measure for AACTAGGA: -0.112 E-score.
The same measure for CACCCAAG: 0.151 E-score; for AGTCAGAA: -0.287 E-score; for GTATGATA: 0.426 E-score.
With AGTATACG, the binding signal was 0.26 E-score.
The same measure for GACGTCTA: -0.0975 E-score; for CATAGCGA: -0.0464 E-score.
Then CGCCGCAG, with -0.124 E-score; and ACCGGATC, with 0.417 E-score; and ATTGCTGG, with -0.17 E-score.
For the sequence GGCTTTAC, the binding signal was -0.215 E-score.
The same measure for CAGAGCGC: -0.318 E-score; for GTGTATAA: 0.134 E-score.
Then ATATCCCG, with 0.42 E-score.
Then AACTTAGA, with 0.122 E-score; and CAGACGCG, with -0.141 E-score.
With AGCAGGAT, the binding signal was determined as 0.242 E-score.
Then AGGTCTAG, with -0.0915 E-score; and ACGAGGGA, with 0.0177 E-score; and GATTACCC, with 0.191 E-score.
Turning to CGAGTTTC, the binding signal is -0.201 E-score.
CGTGAGGA: the binding signal was -0.0129 E-score.
The same measure for GTGACCTA: -0.14 E-score; for CCATAAAG: -0.103 E-score.
As to CCGCATCC, the binding signal turned out to be 0.159 E-score.
In the case of ATTTAGAA, the binding signal was -0.21 E-score.
The same measure for CCACGGCG: -0.102 E-score; for GATGTAGC: -0.231 E-score.
Consider GGTTAACC, for which the binding signal is -0.129 E-score.
Take CCGTCTAC: the binding signal was 0.171 E-score.
Then AAATTGTC, with -0.209 E-score.
Regarding AACCGCTT, the binding signal is -0.273 E-score.
Take CCTGAGAG: the binding signal was 0.0138 E-score.
Then AAGCAGAT, with 0.109 E-score.
Then CCTCGGGA, with 0.0254 E-score.
Regarding ATTAGACC, the binding signal amounted to 0.0991 E-score.
Take CTTGTTCA: the binding signal was -0.113 E-score.
